# The list shows a part of the results.
# Test system: PfHDP1 homeodomain (GST-tagged)
# Assay: gcPBM binding intensity (ln(normalized median fluorescence intensity)); higher = stronger DNA binding
# How it was run: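 Alexa488 anti-GST antibody, scanned at 488 nm, detected GST-tagged P. falciparum DNA-binding domains that had been expressed in E. coli and incubated for 1 h on an Agilent 4 × 180k array. The array carried primer-extended double-stranded 36-bp intergenic genomic probes and negative controls. Binding intensity is the highest Masliner-normalised natural-log median intensity across replicate spots of either orientation of each probe.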
row,Sequence,gcPBM binding intensity (ln)
1,ATTATGTGAGGTAACTAAATATGTACGTAACGAAGA [CACACA_negctrl_site1400],7.04
2,ATATATATATATGTGTGTACTTAAAAATATAATGCA [XGTACX_site7753],8.96
3,TAATGTATAATTAATCGTACATTAGATTGTTGTGTT [XGTACX_site52],6.27
4,ATTTCCCCAACGTGGGTGCATATATTTATGTGTGAA [GTGCAC_site9439],8.97
5,CGTTGTAGGGAATGTAGTACAGTTATTATTTTATTA [XGTACX_site2429],6.22
6,TATATATATAAATACACACACACACCGATATATATA [CACACA_site5408],7.37
7,TCATACATTTTCAGCCTGCACTTATATTTAATAATA [GTGCAC_site9863],7.25
8,ATATATATATATTATACACACGCCGAAAAAATAAAA [CACACA_site1551],8.36
9,TTTATTTTATCTAAAAGTACTTAAATTAGTGTATTT [XGTACX_site5696],6.18
10,TTACGAAAAAACAAGAGTACATGATGTTATAAAATA [XGTACX_site1412],6.52
11,TATCAAATCCAAAGGGGTACATTTTGTTGTCCTAAT [XGTACX_site5575],6.17
12,TAGCTCGTTCGGAGCACACACATATAAATAAATATA [CACACA_site7002],6.63
13,AATACTCTATTTTATAGTACATATATTATTAATCAC [XGTACX_site6622],6.37
14,GAAAAAAAAAAAAATACACACAAATTGGTATATAAT [CACACA_site4369],6.13
15,TAGGGATTATACCACACACACATACCCATAAATATA [CACACA_site5719],6.64
16,ATAGACAGCGCACAAACACACAAACACGCACGCACA [CACACA_site6349],8.06
17,TTTTTACTAATAAGATGTACATATATCCTAAGCATA [XGTACX_site251],6.42
18,TTTCGTAAACAAATTTGTACGTACAAATTTATAAAT [XGTACX_site8175],6.73
19,ATAATATAATAAACGTGTACACAATTAAATTATTAT [XGTACX_site3491],6.5
20,TCTTTTATTAGTAAAAGTACTTATATAAATATTATA [XGTACX_site5099],6.27
21,TACATACATACATACACACATACATATATATATATA [CACACA_site1387],9.05
22,TGTTTTTTATTTAATTGTACGAATTAAAAAAAATAA [XGTACX_site3009],6.39
23,TTCCAACCATAGTATTCACACATTGTTTTATTCCAT [CACACA_site4927],6.7

row,Sequence,gcPBM binding intensity (ln)
1,AATATTCATATGCAGGTGCATTAATTTTTATTAATT,10.2
2,CAAATTTTTTATTAAACACACAAACATATATTTATA [CACACA_site6992],6.4
3,AAAAAAGAAAAGAAATCATGAAAGAATCAAATAAAG [CACACA_negctrl_site1771],6.31
4,TTTTTATATATATTCTCACACACTTTTTATTTTAAC [CACACA_site657],6.85
5,TAAGGAAAAAATTATAGTACATAATAAATGTATATA [XGTACX_site8328],6.15
6,ATAAATATATTTCACGCACACACACCCCAAATAAAT [CACACA_site9272],7.73
7,CATAATATATTTTATGCATGCAAAGCAACCTTTTGA [TGCATGCA_site715],6.41
8,TTTTTTGTTATATTTGTGCGCAAAAATTGCTGCTTG,8.97
9,TATTAACAAAATTTTTAACACACAAAAAAAAAAAAA [CACACA_site8542],6.18
10,TATTTATTTAAAGGCACACATATTTTTATACTTTCT [CACACA_site3163],6.27
11,ATTATATATATATATAAACACACATAAATATAAATA [CACACA_site8291],6.59
12,AAAATTTATGTAAAATGTACATACATAAATAAAGAT [XGTACX_site4339],7.11
13,GTTTCCTTAATATTCACACACATATATATAATATAT [CACACA_site1856],7.1
14,ATGTTATAAGATTTATGTACACACATATACACACCT [XGTACX_site1316],7.18
15,TATATATAATATATATGTACGTATATATATAATATA [XGTACX_site8383],6.4
16,TTAACATAAATATATACACACCAATGATGGCATTTA [CACACA_site4952],6.37
17,AATAAAGCAATAAATACACACATATTTATATTTATA [CACACA_site7390],6.65
18,TTTATTTTCCAAAGGGTGCACATAGTTGAAACGATA,9.41
19,TTTTGGATTGAGGACCTTTTTATAGAATTATGTTTT [TGCATGCA_negctrl_site544],6.55
20,ATATATAATTTTTACACACGCAATAAATATATATAT [CACACA_site4283],7.7
21,TTTATTTATTACTAAAGTACTAAATCATATTATTAT [XGTACX_site2574],5.91
22,ATGAACAAGTGGCACACACACATTATAACTAATTTA [CACACA_site5731],6.38
23,TTCTTTTTTTTTATCACACATATTACAATCTAGTGC [CACACA_site4697],7.13

row,Sequence,gcPBM binding intensity (ln)
1,AAAATAATATTTCCTTGTACACATATGTATTTGTTC [XGTACX_site4430],7.1
2,TTTTCATAATATACATGTACATATATAAATTATTAA [XGTACX_site5206],6.41
3,GTATACATGCAAATTTTTATTTACAACCCCAAAAAG [XGTACX_negctrl_site255],7.05
4,TATTATAATATGCCTTGTACATATAACAAATTTATT [XGTACX_site108],6.43
5,TTTTTTTCACAAAATACACACAATATATTTTATATC [CACACA_site1138],6.66
6,ATCTTTTCATATTGCTGTACAAATTATTTTCATTCG [XGTACX_site492],7.26
7,TTAATATTAATTATATGTACATATAATATATATATA [XGTACX_site1757],8.29
8,ATGTTAAACAAATCTATACACACGTATATGACAAAA [CACACA_site1783],6.53
9,GAGAAATGGAGACACACACACATATTATATATATAT [CACACA_site1532],8.68
10,TGTATAAAATTCCATTGTACATATTATTTTACGACA [XGTACX_site7764],6.14
11,AAAAGTCTTCAAATTTGTACATATATATATATATAT [XGTACX_site3404],9.29
12,GGTACATACAGACACACACACAAAAAAAAAAAAATA [CACACA_site6844],6.63
13,ATAAAAAAAAAAAGAAGTACATGTATTAAAATTTAT [XGTACX_site3927],6.89
14,AACAAAGGATTTATATATACATACATACATACATAA [GTGCAC_negctrl_site469],6.31
15,TGAATTTACAAAATCATGCACTTAATTACAGAATAA,7.61
16,GCAAATCTTATATGAAGTACATATCTTATAAATAAA [XGTACX_site6903],6.14
17,TTTATTATATTTTTTTGTACATATTGATGTATATAA [XGTACX_site6527],6.57
18,AGCAAAATGAAATAAATTGGAAAATATTACTGAACG [CACACA_negctrl_site1433],6.35
19,CGAACACAAACACAAACACACATCATATATATATAT [CACACA_site4857],9.06
20,ATTTTGGAAATAATATGTACATATACATAATATATA [XGTACX_site4177],6.47
21,AATATACAAAAAAAAAAAAAAAAAAAAAAGATGGAA [TGCATGCA_negctrl_site550],6.03
22,ATTCATATGAAACACACACACACACCCATAAAAAAA [CACACA_site3246],7.04
23,TTTTTTTTTTTTTACACACACAAAATATTATAGGTA [CACACA_site7209],6.73

row,Sequence,gcPBM binding intensity (ln)
1,ATTTTTTACATACTCAAATGTTTTAATTTTTTATAT [CACACA_negctrl_site1213],6.57
2,TCTTTTCAATTTTATATGATCTTAATATTTTATGAA [GTGCAC_negctrl_site294],6.24
3,TTTCTTTTCTTCTCTATTTTTTTTTCACGGCATTAT [TGCATGCA_negctrl_site484],6.63
4,ACATTAAAAAATTGTTTGCACTATATAAAATATTAA [GTGCAC_site9728],8.82
5,AATATAAGAAAAATAACACACACATAAACATATATA [CACACA_site8899],7.06
6,ACATATAAAATATTCACACACAAGTTATAGTTCTCG [CACACA_site3626],6.41
7,AATAAATTATATATCACACATATATATTTATATTTA [CACACA_site5964],6.29
8,ATTTTGTTATTATATATATATATATATATATATATA [XGTACX_negctrl_site590],9.34
9,AAATGTGAACTATAATAATTTCAACGTCTGATATAA [TGCATGCA_negctrl_site440],5.94
10,TTTCTTTCGAATGCTTCACACATTACTCTTAAATAG [CACACA_site5265],6.78
11,CAAAACCTAATATGTACACACATATACATCACACTT [CACACA_site7480],6.64
12,AAATTTATAAAGAACACACACATATATATATATATA [CACACA_site48],9.26
13,ATATATATATATATAGTGCACATTTATATAATTATT,10
14,ATATTTCTGTCAAGCACACATAATATTAATATATGT [CACACA_site318],6.75
15,ATTTTAAATTAAATTACACACTACGAATAATATATT [CACACA_site4016],6.51
16,TGTATAAAAATTTATACACACATTTTATATATTTCA [CACACA_site1015],6.55
17,TAATCCATAAGAAGCACACACATATATATATATTTT [CACACA_site1399],6.54
18,TATTAATTATTATGACATACATATCAGTTATTAAAA [CACACA_negctrl_site600],6.22
19,ACAAATAAGTTTTATACACACATATAAGTAAATACA [CACACA_site4157],6.4
20,GAGAGGAACATTATATGTACATATTAATTCTAAAAT [XGTACX_site5433],6.47

# — the supplement of paper PMC11417369
